Test results as given in PubChem BioAssay AID1479 (National Center for Advancing Translational Sciences (NCATS), 2009).
Several values for one entry are separate records, joined by “and”; a condition that tells them apart may be missing. Equal values may be shown once. Among all 280,000 compounds or so, about 820 (0.29%) were called active. This list was built around the results that the source calls inconclusive (neither active nor inactive); the mix of calls is not that of the screen. Calls come from the whole dose curve; as a rule, active = well fitted curve in either direction with a large enough effect; inconclusive = small, poorly fitted or top-dose-only effect; inactive = flat fitted curve, though single readings scatter. Potencies of inconclusive entries are left out as doubtful fits.

Assay: Total Fluorescence Counterscreen for Inhibitors of the Interaction of Thyroid Hormone Receptor and Steroid Receptor Coregulator 2
Details: TRb/SRC2 Texas Red total fluorescence interference; series mostly up to 106 µM; fluorescence change, negative = quenching: at the top concentration
Procedure, shortened: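 Human TRβ ligand-binding domain (0.6 uM) and Texas Red SRC2 peptide (20 nM) in Tris buffer with 1 uM T3 and 5% DMSO were incubated with pinned compound for 5 hr at ambient temperature. Total fluorescence was computed as S + 2P (555/632 nm).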
% is set by controls: 0 for no effect and ±100 for the full control effect; potency is the fitted concentration of half-maximal effect; tags give direction and shape of the fitted curve or compound fluorescence and quenching.

Compound	Potency	fluorescence change, negative = quenching
O=C(NC1CCN(Cc2ccccc2)CC1)c1ccc(Cn2c(=O)c3ccccc3n(Cc3ccccc3)c2=O)cc1	inconclusive [falling, partial curve, poor fit]	–
CN(C)c1ccc(N/C=C/C(=O)c2ccccc2)cc1	active: 44.7 µM [fluorescent]	–
CC(=O)c1ccccc1OCC(O)Cn1c(CO)nc2ccccc21 (centres undefined)	inconclusive [falling, full curve, poor fit]	–
COc1ccc(NC(=O)N2CCOc3ccc(Cl)cc32)cc1	inconclusive [falling, partial curve, poor fit]	–
CCOC(=O)c1c(NC(=O)c2cc3nc(-c4ccc(Br)cc4)cc(C(F)(F)F)n3n2)sc(C(C)=O)c1C	inconclusive [quencher, full curve]	–
Cc1cs/c(=N\N=C\c2ccccc2)n1Cc1ccco1	inconclusive [quencher, full curve]	–
CCS(=O)(=O)c1ncc(Cl)c(C(=O)Nc2ccccc2)n1	inconclusive [falling, partial curve, poor fit]	–
Cc1cccc(C(=O)n2nc(-c3cccnc3)nc2NCc2ccccc2)c1	active: 0.0089 µM [quencher]	–
COC(=O)c1c(NC(=O)Cc2coc3ccc(C(C)C)cc23)sc2c1CCC2	inconclusive [falling, full curve, poor fit]	–
C=COCC1CN2C(CCC(C)C2c2ccc(Br)cc2)C(=O)O1 (centres undefined)	–	inactive: -1.63% [at 11.2 µM] and inactive: 0.0463% [at 11.2 µM]
COc1ccccc1OCc1nc(C#N)c(NCc2ccc(C)cc2)o1	inconclusive [quencher, full curve]	–
CCOc1cc(-c2ccc(OC(=O)c3ccc(OC)cc3)c(OC)c2)cc(=O)c2c(C)oc(C)c12	inconclusive [falling, full curve, poor fit]	–
COCCN1C(=O)c2oc3ccc(C)cc3c(=O)c2C12C(=O)N(C)c1ccccc12 (centres undefined)	inconclusive [quencher, partial curve]	–
O=C(COC(=O)c1ccccc1Sc1ccc(C(F)(F)F)cc1[N+](=O)[O-])NC(=O)NC1CCCC1	inconclusive [falling, partial curve, poor fit]	–
CC(=O)c1ccc(N2CCN(S(=O)(=O)c3cc(-c4noc(C)n4)ccc3C)CC2)cc1	inconclusive [falling, full curve, poor fit]	–
O=C(Nc1cc(-c2nc3cc(Cl)ccc3o2)ccc1Cl)c1cc([N+](=O)[O-])ccc1N1CCOCC1	inconclusive [falling, full curve, poor fit]	–
CCN(Cc1ccccc1)C(=O)c1cc2c(=O)[nH]c3ccc(C)cc3c2s1	inconclusive [falling, full curve, poor fit]	–
CCC(=O)N1CCc2cc(CNC(=O)c3ccc(OC)cc3)ccc21	inconclusive [falling, full curve, poor fit]	–
Cc1ccc2cc(CCNC(=O)C(=O)c3c[nH]c4ccccc34)c(=O)[nH]c2c1	inconclusive [rising, single point]	–
Cn1nc(C(=O)NCc2ccccc2Cl)c2c1-c1ccccc1S(=O)(=O)C2	active: 100 µM [quencher]	–
COc1cc(Cl)c(C)cc1NC(=O)Cn1ncc2c1-c1cc(C)ccc1OC2	inconclusive [quencher, full curve]	–
CCCOc1ccc(CNC(=O)CCCn2nc(C)c3sc4ccccc4c3c2=O)cc1	–	inactive: -6.68%

Compound	Potency	fluorescence change, negative = quenching
O=C(/C=C/c1cccc([N+](=O)[O-])c1)NCCSCc1c(Cl)cccc1Cl	inconclusive [quencher, full curve]	–
COc1ccccc1N1CCN(C(CNC(=O)C(=O)NCc2ccc(F)cc2)c2cccnc2)CC1 (centres undefined)	inconclusive [falling, partial curve, poor fit]	–
Cc1ccc(NC(=S)NC2CCCC2)cc1C	–	inactive: 1.57%
Cc1ccc(-c2csc(N3N=C(c4ccccc4)/C(=C\c4ccc(N(C)C)cc4)C3=O)n2)cc1	active: 39.8 µM [quencher]	–
Cc1ccc(CNC(=O)C2CCN(Cc3nc(-c4cccc(Br)c4)oc3C)CC2)cc1	–	inactive: 0.0978%
O=C(CCCOc1ccc(Cl)cc1Cl)N/N=C/c1ccccc1O	active: 31.6 µM [quencher]	–
N#C/C(=C/c1ccc2c(c1)OCO2)C(=O)NCCc1c[nH]c2ccccc12	–	inactive: -1.06%
COc1ccc(NS(=O)(=O)c2ccc3[nH]c4c(c3c2)CCCC4)cc1OC	–	inactive: -0.0889%
Cc1ccc(C)c(-n2c(N)c(C#N)c3nc4ccccc4nc32)c1	inconclusive [falling, full curve, poor fit]	–
COc1ccc(C2CC(=O)c3cc(-c4nc(-c5ccc(Cl)cc5)cs4)c(=O)[nH]c3C2)cc1OC (centres undefined)	inconclusive [falling, full curve, poor fit]	–
Cc1ccccc1C(=O)n1nc(-c2cccnc2)nc1NCc1ccccc1	–	inactive: 4.34%
CCn1cc2nc(SCC(=O)Nc3ccccc3C(F)(F)F)n(Cc3ccc(C)cc3)c(=O)c2n1	inconclusive [falling, full curve, poor fit]	–
COc1ccccc1NC(=O)c1c(C)cc(C)nc1SCC(=O)c1ccc(Cl)cc1	inconclusive [falling, partial curve, poor fit]	–
Cc1ccc(N=C2NC(=O)/C(=C/C=C/c3ccco3)S2)cc1C	inconclusive [quencher, partial curve]	–
COC(=O)C1=C(C(=O)OC)[C@@H]2N(C)c3ccccc3[C@@]23C[C@@H](CO)N(C(=O)c2cc(C)oc2C)C3=N1	–	inactive: 3.05% [at 11.2 µM]
Cc1ccc(C(C)C)c(OC(C)C(=O)NCC2(N(C)C)CCCCC2)c1 (centres undefined)	inconclusive [falling, full curve, poor fit]	–
CCOC(=O)/C=C(C)\C=C\c1c[nH]c2ccccc12	–	inactive: -2.84%
CCCN1C(=O)C2(c3ccccc31)c1c(oc3ccccc3c1=O)C(=O)N2CCO (centres undefined)	active: 31.6 µM [quencher]	–
CCCNC(=O)c1ccc(-n2c(-c3ccccc3)cc3c2CCC(C)C3)cc1 (centres undefined)	inconclusive [falling, full curve, poor fit]	–
CN(C)c1ccc(NC(=O)COC(=O)Cn2nnc3ccccc32)cc1	inconclusive [rising, single point]	–
Cc1nc(-c2ccccc2)sc1CCNS(=O)(=O)c1ccc(Br)cc1	inconclusive [quencher, full curve]	–
Cc1ccn2c(Nc3ccc4c(c3)OCCO4)c(-c3ccc(Cl)s3)nc2c1	–	inactive: -2.04%

Compound	Potency	fluorescence change, negative = quenching
Cc1cccc(NC(=O)C2CCCN(S(=O)(=O)c3cnc[nH]3)C2)c1C (centres undefined)	inconclusive [falling, full curve, poor fit]	–
Cn1ccc2cc(S(=O)(=O)N3CCCN(C(=O)Nc4ccccc4Br)CC3)ccc21	inconclusive [quencher, full curve]	–
CCN(CC)S(=O)(=O)c1ccc(C)c(NC(=O)Cn2c(=O)cnc3ccccc32)c1	inconclusive [falling, partial curve, poor fit]	–
CCNC(=S)N=Nc1c(O)[nH]c2ccc([N+](=O)[O-])cc12	–	inactive: -5.05%
COc1ccccc1N1CCN(c2nc3c(S(=O)(=O)c4ccc(C)c(C)c4)nnn3c3ccc(Cl)cc23)CC1	inconclusive [falling, full curve, poor fit]	–
Cc1cc(C)cc(-n2ccnc2SCC(=O)Nc2ccc3c(c2)OCCO3)c1	–	inactive: -2.27%
Cc1ccc(CN2CCN(/N=C/c3ccc(C(=O)O)cc3)CC2)cc1	active: 0.0631 µM [quencher]	–
Cc1ccc(-n2c(SCC(=O)Nc3cccc(F)c3)nc3c(oc4ccccc43)c2=O)cc1C	inconclusive [quencher, full curve]	–
N#C/C(=C\c1ccc(-c2ccc([N+](=O)[O-])cc2)o1)C(=O)Nc1nc(-c2cccs2)cs1	inconclusive [fluorescent, partial curve]	–
CN(C)c1ccc(/C=N/Nc2ccc(-n3ccnc3)nn2)cc1	–	inactive: -3.31%
CCc1cccc(NC(=O)Cn2cc(C(=O)c3ccncc3)c(=O)c3cc(C)c(C)cc32)c1	inconclusive [quencher, full curve]	–
O=C(NCc1ccccc1)C1CCN(C(=O)c2cnn(-c3ccccc3)c2-n2cccc2)CC1	active: 31.6 µM [quencher]	–
Nc1ccc(Br)c2c1C(=O)c1ccccc1C2=O	–	inactive: 11%
O=C(Nc1ccc2nc(-c3ccco3)c(-c3ccco3)nc2c1)N1CCCCCC1	active: 22.4 µM [quencher]	–
CCc1ccc(-n2nc(C)c3c(C)cc(=O)n(CC(=O)NCc4ccc(C)cc4)c32)cc1	–	inactive: -0.236%
CC(C)=CCC/C(C)=C/CO/N=C1/[C@H]2O[C@@H]2[C@@H](O)[C@H]2[C@H]1CCn1c(=O)n(C)c(=O)n12	inconclusive [falling, partial curve, poor fit]	–
CCCCCCc1cc2cc(-c3nnc(-c4ccc(C)cc4)o3)c(=O)oc2cc1O	active: 2510 µM [quencher]	–
CCN(CC)S(=O)(=O)c1ccc(C(=O)NCc2cccs2)cc1	–	inactive: -0.816%
Cc1ccccc1C(=O)Nc1ccc2nc(Nc3cccc(C(F)(F)F)c3)cc(C)c2c1	inconclusive [quencher, full curve]	–
CC(C)(C)C1CCc2c(sc(NC(=O)CCC(=O)O)c2C(=O)Nc2ccccc2C(F)(F)F)C1 (centres undefined)	–	inactive: -1.54%
